In article PMC6454211 (Biochemistry, 2018):

Target: Calmodulin (human full-length CaM, Ca2+-loaded) (human, UniProt P0DP23)
Test: cross-linking

binding result: binds
B1: p85α cSH2 domain V663K/V667N ([…]) (domain or fragment)
chain: not shown
